Source: PMC4336329 (PLoS ONE, 2015)
In all, about 310,000 compounds went through this assay and about 14,000 (4.5%) showed an effect of 50% or more. Effects have a minus sign here. Some of the results follow.
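Note: peak tail current of the secondary pulse compared with the same well before compound.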

What follows are compounds tested against human ether-à-go-go-related gene (hERG) potassium channel (human, UniProt Q12809) (assay: primary screen, population patch clamp on CHO cells stably expressing hERG).
Chain of human ether-à-go-go-related gene (hERG) potassium channel (Q12809 whole entry, looked up): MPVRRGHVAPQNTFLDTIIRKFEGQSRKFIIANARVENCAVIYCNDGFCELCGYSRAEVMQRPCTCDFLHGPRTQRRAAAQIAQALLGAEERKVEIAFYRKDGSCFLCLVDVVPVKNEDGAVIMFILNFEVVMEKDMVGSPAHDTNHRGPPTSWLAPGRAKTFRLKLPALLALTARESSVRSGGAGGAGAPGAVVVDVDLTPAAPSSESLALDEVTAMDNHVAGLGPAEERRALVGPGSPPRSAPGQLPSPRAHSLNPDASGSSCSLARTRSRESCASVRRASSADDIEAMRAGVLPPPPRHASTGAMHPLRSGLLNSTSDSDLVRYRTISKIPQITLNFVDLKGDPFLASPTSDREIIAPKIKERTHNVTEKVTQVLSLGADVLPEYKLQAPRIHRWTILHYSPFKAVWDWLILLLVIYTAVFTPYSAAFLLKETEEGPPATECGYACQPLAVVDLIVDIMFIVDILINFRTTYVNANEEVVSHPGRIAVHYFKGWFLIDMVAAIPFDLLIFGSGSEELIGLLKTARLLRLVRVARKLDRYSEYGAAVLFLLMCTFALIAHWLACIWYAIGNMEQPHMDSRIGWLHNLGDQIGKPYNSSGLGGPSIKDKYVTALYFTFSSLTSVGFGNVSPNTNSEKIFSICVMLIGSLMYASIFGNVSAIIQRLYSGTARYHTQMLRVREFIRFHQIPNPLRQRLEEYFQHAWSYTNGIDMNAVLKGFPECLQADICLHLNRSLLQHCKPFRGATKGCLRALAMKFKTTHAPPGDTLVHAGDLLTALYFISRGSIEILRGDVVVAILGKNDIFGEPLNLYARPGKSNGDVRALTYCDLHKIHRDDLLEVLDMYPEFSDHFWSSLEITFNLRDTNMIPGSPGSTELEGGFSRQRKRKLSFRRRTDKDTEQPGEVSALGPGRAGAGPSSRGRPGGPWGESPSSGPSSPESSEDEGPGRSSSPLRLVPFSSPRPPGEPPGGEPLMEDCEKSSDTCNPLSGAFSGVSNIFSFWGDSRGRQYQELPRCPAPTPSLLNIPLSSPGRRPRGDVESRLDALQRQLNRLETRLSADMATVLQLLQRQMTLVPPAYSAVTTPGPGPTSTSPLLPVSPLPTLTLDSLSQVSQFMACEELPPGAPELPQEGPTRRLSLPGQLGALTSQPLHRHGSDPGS
In the case of `CCCOc1ccc(NC(=O)CNC(=O)c2cc(OC)cc(OC)c2)cc1OCCC`, the “hERG current change (%, negative = inhibition) at 10uM” value is reported as 9.75%. With `COc1ccc(C(=O)NNC(=S)NC(=O)C(C)(C)C)cc1` the “hERG current change (%, negative = inhibition) at 10uM” value was 13.3%. In the case of `Cc1ccc2nc(-c3ccc(NC(=S)NCCC(C)C)cc3)sc2c1`, the “hERG current change (%, negative = inhibition) at 10uM” value is reported as -11.8%. With `N#Cc1nc(-c2ccccc2)oc1N1CCC(C(N)=O)CC1` the “hERG current change (%, negative = inhibition) at 10uM” value was 9.26%. In the case of `COc1ccc(Cc2nnc(N/N=C/c3ccccc3O)[nH]c2=O)cc1OC`, the “hERG current change (%, negative = inhibition) at 10uM” value is reported as -26.9%. For `CCOc1cc(-c2nc(-c3cc(OC)c(OC)c(OC)c3)no2)cc(OCC)c1OCC`, the “hERG current change (%, negative = inhibition) at 10uM” value was 15.5%. With `c1ccc(-n2ncc3c(N4CCN(CCOc5cccc6ccccc56)CC4)ncnc32)cc1` the “hERG current change (%, negative = inhibition) at 10uM” value was 13.3%. In the case of `O=C(COC(=O)Cc1cccs1)Nc1ccccc1Cl`, the “hERG current change (%, negative = inhibition) at 10uM” value is reported as 20.5%. For `Cc1ccc(-c2nc(-c3ccccn3)no2)cc1[N+](=O)[O-]`, the “hERG current change (%, negative = inhibition) at 10uM” value was 8.38%. In the case of `O=C(Nc1ccc(F)cc1F)N1CCCN(c2ccc(C(F)(F)F)cn2)CC1`, the “hERG current change (%, negative = inhibition) at 10uM” value is reported as -12.4%. In the case of `O=C(CN1CCC(NC(=O)c2ccccc2F)CC1)Nc1ccc2c(c1)OCO2`, the “hERG current change (%, negative = inhibition) at 10uM” value is reported as -41.7%. For `O=C(O)C1CC(=O)N(CCc2ccccc2)C1` (stereo not drawn), the “hERG current change (%, negative = inhibition) at 10uM” value was 6.79%. `COc1ccc(S(=O)(=O)N2CCN(C(=O)NCc3ccc(C)cc3)CC2)cc1` was tested, and the “hERG current change (%, negative = inhibition) at 10uM” value was -8.22%. `c1ccc2c(c1)nnn2Cc1nnc2sc(-c3ccc4c(c3)OCCO4)nn12` was tested, and the “hERG current change (%, negative = inhibition) at 10uM” value was 2.29%. With `COC(=O)c1sccc1NC(=S)N1CCN(c2ccccc2)CC1` the “hERG current change (%, negative = inhibition) at 10uM” value was -4.15%. With `O=c1[nH]c(=O)n(CCC2=CCCCC2)c(O)c1C=Nc1cccc(F)c1` the “hERG current change (%, negative = inhibition) at 10uM” value was -7.11%. For `NC(=O)C1CCN(C(=O)C2CC(=O)N(c3ccc4c(c3)OCCO4)C2)CC1` (stereo not drawn), the “hERG current change (%, negative = inhibition) at 10uM” value was 6.32%. `O=C(c1cc2ccccn2n1)N1CCN(c2cccc(C(F)(F)F)c2)CC1` was tested, and the “hERG current change (%, negative = inhibition) at 10uM” value was -4.52%. For `COc1cc(NC(=O)C2CCCCN2)ccc1OCC(C)C` (stereo not drawn), the “hERG current change (%, negative = inhibition) at 10uM” value was 9.42%. In the case of `CSc1cccc(NC(=O)C2CCCN(S(=O)(=O)c3ccc(F)cc3)C2)c1` (stereo not drawn), the “hERG current change (%, negative = inhibition) at 10uM” value is reported as 1.19%. `CCOC(=O)C1CCN(S(=O)(=O)c2ccc(Br)c(OCC)c2)CC1` was tested, and the “hERG current change (%, negative = inhibition) at 10uM” value was -14.8%. `CCN1C(=O)c2cccc3c(S(=O)(=O)Nc4ccncc4)ccc1c23` was tested, and the “hERG current change (%, negative = inhibition) at 10uM” value was 13.3%. `CCC(=O)Nc1ccc(/C(C)=N/NC(=O)c2c(-c3ccccc3Cl)noc2C)cc1` was tested, and the “hERG current change (%, negative = inhibition) at 10uM” value was -2.91%. In the case of `Cc1ccc(S(=O)(=O)N(C)CC(=O)N2CCCCCCC2)cc1`, the “hERG current change (%, negative = inhibition) at 10uM” value is reported as -26%. For `CCCCOP(=O)(OCCCC)C(Nc1ccc(C(=O)OCC)cc1)c1ccncc1` (stereo not drawn), the “hERG current change (%, negative = inhibition) at 10uM” value was -40.7%. With `CCN1CCN(c2nc3c(c(=O)n(C)c(=O)n3C)n2CCSc2ncccn2)CC1` the “hERG current change (%, negative = inhibition) at 10uM” value was 3.51%. `CC1=NN(S(=O)(=O)c2ccc(C)cc2)C(=O)c2ccccc2O1` was tested, and the “hERG current change (%, negative = inhibition) at 10uM” value was 9.79%. `CCOc1ccc(C2CC(c3cccc(OC)c3)Nc3ncnn32)cc1` (stereo not drawn) was tested, and the “hERG current change (%, negative = inhibition) at 10uM” value was -35%. For `S=C(Nc1ccccc1Cl)N1CCCC(c2ccccc2)=N1`, the “hERG current change (%, negative = inhibition) at 10uM” value was -1.76%. With `CCN(CC)C1CCN(Cc2cn[nH]c2-c2ccc(OC)c(F)c2)C1` (stereo not drawn) the “hERG current change (%, negative = inhibition) at 10uM” value was -23.2%. With `CN(Cc1ccccc1)S(=O)(=O)c1ccc(Cl)c(C(=O)N2CCC2)c1` the “hERG current change (%, negative = inhibition) at 10uM” value was -21.7%. `I.NC(Cc1ccccc1)C(O)(c1ccccc1)c1ccccc1` (stereo not drawn) was tested, and the “hERG current change (%, negative = inhibition) at 10uM” value was -29.8%. With `CN(C)CC(=O)c1ccc(-c2ccccc2)cc1` the “hERG current change (%, negative = inhibition) at 10uM” value was -1.03%. With `O=C(NC(Cc1c[nH]c2ccccc12)C(=O)O)c1ccc(Br)cc1` (stereo not drawn) the “hERG current change (%, negative = inhibition) at 10uM” value was 2.04%. `CC1CCc2nn(CC(=O)N3CCc4ccccc43)cc2C1` (stereo not drawn) was tested, and the “hERG current change (%, negative = inhibition) at 10uM” value was -6.82%. For `O=C(O)c1ccc(Nc2ncc([N+](=O)[O-])cc2[N+](=O)[O-])cc1`, the “hERG current change (%, negative = inhibition) at 10uM” value was 18.1%. `CCOP(=O)(OCC)c1cccc(O)c1` was tested, and the “hERG current change (%, negative = inhibition) at 10uM” value was 0.784%. In the case of `CCOC(=O)c1sc(=S)n(-c2ccc(Cl)cc2)c1C`, the “hERG current change (%, negative = inhibition) at 10uM” value is reported as -37.4%. With `CCCC(C)NC(=O)Cn1c(=O)c2c(ncn2CCC(C)C)n(Cc2ccccc2)c1=O` (stereo not drawn) the “hERG current change (%, negative = inhibition) at 10uM” value was 5.18%. For `Cc1c[n+](CC(=O)c2ccccc2)c(C)cn1.[Br-]`, the “hERG current change (%, negative = inhibition) at 10uM” value was 5.14%. For `CC(C)CNS(=O)(=O)c1ccc(S(=O)(=O)N2CCC3(CC2)OCCO3)cc1.O=C(O)C(=O)O`, the “hERG current change (%, negative = inhibition) at 10uM” value was 0.99%. For `Cc1ccc(NC(=S)N(Cc2ccco2)C2CCN(C(C)C)CC2)cc1`, the “hERG current change (%, negative = inhibition) at 10uM” value was -26.5%.
